# According to article PMC4336329 (PLoS ONE, 2015):
# The whole screen tested about 310,000 compounds, of which about 14,000 (4.5%) showed an effect of 50% or more. Effects have a minus sign here. Some of the results follow.
# Target: human ether-à-go-go-related gene (hERG) potassium channel (human, UniProt Q12809)
# Test: primary screen, population patch clamp on CHO cells stably expressing hERG
# 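Also: peak tail current of the secondary pulse compared with the same well before compound.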
# Sequence of human ether-à-go-go-related gene (hERG) potassium channel (Q12809 whole entry, looked up): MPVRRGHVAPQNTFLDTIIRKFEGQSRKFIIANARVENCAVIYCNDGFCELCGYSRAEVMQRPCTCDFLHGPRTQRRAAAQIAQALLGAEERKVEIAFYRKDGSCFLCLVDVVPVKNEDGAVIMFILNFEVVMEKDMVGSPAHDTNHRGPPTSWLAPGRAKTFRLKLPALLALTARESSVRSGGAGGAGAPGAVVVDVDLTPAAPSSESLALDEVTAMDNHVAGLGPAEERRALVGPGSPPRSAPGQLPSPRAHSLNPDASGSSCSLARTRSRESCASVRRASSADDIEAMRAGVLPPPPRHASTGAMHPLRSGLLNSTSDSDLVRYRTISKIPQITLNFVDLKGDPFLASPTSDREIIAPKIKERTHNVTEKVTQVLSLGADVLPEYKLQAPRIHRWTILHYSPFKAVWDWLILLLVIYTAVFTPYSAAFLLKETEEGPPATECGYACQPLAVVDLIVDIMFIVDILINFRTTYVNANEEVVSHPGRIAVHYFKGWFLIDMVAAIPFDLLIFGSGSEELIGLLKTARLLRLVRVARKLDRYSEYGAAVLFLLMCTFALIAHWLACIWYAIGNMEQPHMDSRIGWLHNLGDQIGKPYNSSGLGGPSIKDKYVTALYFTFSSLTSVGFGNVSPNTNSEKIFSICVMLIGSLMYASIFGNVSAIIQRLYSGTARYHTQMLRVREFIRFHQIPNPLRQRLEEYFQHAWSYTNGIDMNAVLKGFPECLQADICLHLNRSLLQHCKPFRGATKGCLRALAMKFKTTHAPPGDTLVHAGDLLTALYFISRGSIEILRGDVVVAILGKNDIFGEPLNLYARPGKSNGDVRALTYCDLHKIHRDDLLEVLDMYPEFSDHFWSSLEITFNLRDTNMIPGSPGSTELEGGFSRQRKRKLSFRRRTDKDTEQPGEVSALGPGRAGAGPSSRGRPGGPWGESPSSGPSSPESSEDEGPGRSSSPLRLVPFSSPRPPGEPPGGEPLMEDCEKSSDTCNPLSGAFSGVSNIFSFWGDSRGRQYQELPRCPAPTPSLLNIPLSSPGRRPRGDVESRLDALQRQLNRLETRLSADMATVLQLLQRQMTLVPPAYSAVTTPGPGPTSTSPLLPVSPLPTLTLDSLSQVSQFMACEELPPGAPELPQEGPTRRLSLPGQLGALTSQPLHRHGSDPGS
row,Structure (SMILES),"hERG current change (%, negative = inhibition) at 10uM [%]"
1,CCC1(c2ccccc2)NC(=O)N(CC(=O)Nc2cc(S(=O)(=O)N3CCCCC3)ccc2N(C)C)C1=O (stereo not shown),-18.3
2,Cc1ccnc(NC(=O)COc2ccc3c(c2)CCC3)c1,-12.3
3,C=CCSc1nc(N)c(C(=O)Nc2ccccc2)cc1C#N,-3.16
4,O=C(NCc1ccccn1)NC12CC3CC(CC(C3)C1)C2,0.211
5,COc1ccc(/C(C)=N/N2CCCCC2)c(O)c1,13.5
6,CC1=CC=CN2C1=NC(=O)CC2(C)C(=O)N(CC(=O)NC1CCCC1)c1cc(C)cc(C)c1 (stereo not shown),43.3
7,Nc1ccc(N2C(=O)c3ccccc3C2=O)c(Cl)c1,8.05
8,O=C(NNC(=O)C1CCCN(c2ncccn2)C1)c1ccncc1 (stereo not shown),5.96
9,COC(=O)C(O)(CC(=O)Nc1cccc(SC)c1)C(F)(F)F (stereo not shown),8.38
10,Cc1c2n(c3ccccc13)CC/C2=N\O,-14.9
11,COc1cccc(N2CCN(C(=O)c3ccc(Cl)c(NC4=NC5CS(=O)(=O)CC5S4)c3)CC2)c1 (stereo not shown),22.8
12,Nc1cccc(-c2nc3cc(S(=O)(=O)c4ccc5oc(-c6cccc(N)c6)nc5c4)ccc3o2)c1,-1.55
13,O=C(CCn1c(=O)sc2ccccc21)NCc1cccs1,1.8
14,CNC(=O)Cc1csc2ccc(C)cc12,4.2
15,CCc1ccc(CCC(=O)Nc2ccc(C)c(C)c2)o1,-20.8
16,Oc1ccc(N=Nc2nccs2)c(O)c1,30.1
17,O=C(CCCC(=O)OCC(Cl)=C(Cl)Cl)Nc1cccc(F)c1,-9.54
18,Cc1c(C(C)(C)C)s/c(=N/S(=O)(=O)c2ccccc2)n1C,1.84
19,CC1(C)CC2C1CCC1(O)CC2(C)CCC1N(O)c1ccc(C(=O)NCCO)cn1 (stereo not shown),12.5
20,O=C(O)CCc1ccc(-c2cccs2)n1NC(=O)c1cccs1,22.3
21,CCCCOC(=O)C1[C@H]2C(=O)N(Cc3cccs3)C[C@]23C=C[C@H]1O3 (stereo partly shown),-9.35
22,O=c1cc(-c2ccccc2)c2ccccc2[nH]1,2.17
23,CCOC(=O)c1c(S(=O)(=O)Nc2ccc(C)cn2)c(C)n(C)c1C,19.6
24,COc1ccc2nc(NC(=O)C3CCN(C(=O)c4ccco4)CC3)sc2c1,-6.31
25,CN(c1ccccc1)S(=O)(=O)c1ccc(Cl)c(C(=O)NCC(c2ccco2)N2CCCC2)c1 (stereo not shown),-50.9
